According to PubChem BioAssay AID504637 (National Center for Advancing Translational Sciences (NCATS), 2011):
Among all 1,100 compounds or so, about 430 (39%) were called active. The set was probably picked from earlier hits. Inconclusive results, whose numbers are uncertain, are shown with a selection of clear calls. The call rests on the fitted dose curve; in most records, active means well fitted inhibition curve with a large enough effect; inconclusive means small, poorly fitted or top-dose-only effect, or effect the other way; inactive means flat fitted curve, though single readings scatter. Potencies of inconclusive entries are doubtful fits and often do not repeat.

Biological target: ATP-dependent 6-phosphofructokinase (Trypanosoma brucei brucei) (UniProt O15648)
UniProt O15648, sequence (O15648 whole entry, looked up): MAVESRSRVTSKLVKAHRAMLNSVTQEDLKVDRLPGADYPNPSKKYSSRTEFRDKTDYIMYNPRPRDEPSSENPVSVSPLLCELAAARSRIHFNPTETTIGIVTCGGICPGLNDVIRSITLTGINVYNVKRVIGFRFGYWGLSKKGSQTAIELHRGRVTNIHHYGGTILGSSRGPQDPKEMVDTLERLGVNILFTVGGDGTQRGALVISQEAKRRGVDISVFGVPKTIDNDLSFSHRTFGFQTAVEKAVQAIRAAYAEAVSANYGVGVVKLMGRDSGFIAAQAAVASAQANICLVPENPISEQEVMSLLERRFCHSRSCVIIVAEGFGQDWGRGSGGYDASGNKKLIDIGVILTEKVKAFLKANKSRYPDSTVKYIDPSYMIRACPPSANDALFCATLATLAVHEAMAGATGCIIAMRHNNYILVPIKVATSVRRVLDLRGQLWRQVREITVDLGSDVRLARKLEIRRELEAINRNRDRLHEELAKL
Test: Inhibitors of T. brucei phosphofructokinase: Hit Validation; further: nearly all actives have a fitted effect of over 60% in size
Settings: purified T. brucei PFK, ADP-Glo luminescence, 45 min; series mostly up to 57.5 µM
Potency means the concentration at half of the fitted maximal effect; tags describe the fitted curve by direction and shape.

Compound | Potency
Cc1cc(C)c2c(=O)n(CC(=O)Nc3cccc(F)c3)sc2n1 | active: 4.78 µM
O=C(NNC(=O)c1cc2ccccc2cc1O)c1cccs1 | inconclusive: 13.5 µM [activator, partial curve]
O=C(CSc1nnc(CNc2ccc(F)cc2)o1)N1CCCc2ccccc21 | active: 26.9 µM
O=C1SC(SCc2ccccc2)=N/C1=C\c1ccc(C(=O)O)cc1 | inconclusive: 26.9 µM [activator, partial curve, poor fit]
O=C(NNc1ccccc1[N+](=O)[O-])Nc1ccc(Cl)c(Cl)c1 | inactive
c1cc(SSc2ccncc2)ccn1 | inconclusive: 26.9 µM [inhibitor, single point]
O=C(NNc1ccc([N+](=O)[O-])cc1)Nc1ccccc1 | inconclusive: 21.3 µM [inhibitor, partial curve]
COC(=O)c1cccc(-n2sc3ccccc3c2=O)c1 | inconclusive: 37.9 µM [inhibitor, single point]
O=C(/C=C1\C(=O)Nc2ccccc21)/C=C1\C(=O)Nc2ccccc21 | active: 4.78 µM
Cc1c(-c2ccc(Cl)cc2)oc(=O)c2c(N)n(-c3ccccc3)nc12 | inconclusive: 26.9 µM [inhibitor, single point]
NC(=O)c1cc(S(=O)(=O)N2CCN(c3ccc([N+](=O)[O-])cc3)CC2)cs1 | active: 26.9 µM
N/C(Cc1ccc(Cl)c(Cl)c1)=N\OC(=O)c1cccs1 | inconclusive: 26.9 µM [inhibitor, partial curve]
Nn1c(SCC(=O)Nc2cccnc2Cl)nnc1-c1ccccc1 | active: 10.7 µM
COc1cc(C(=S)N2CCN(c3ccccc3Cl)CC2)cc(O)c1O | inconclusive: 23.9 µM [inhibitor, single point]
O=C(O)CCNC(=O)c1ccc(NC(=O)Cc2ccc(Cl)cc2)cc1 | inconclusive: 26.9 µM [inhibitor, partial curve]
CS(=O)(=O)NNC(=O)c1cc2cc3ccccc3nc2s1 | inactive
COC(=O)c1ccc(-c2noc(CN(C)CCC3CCCCO3)n2)cc1 (centres undefined) | inconclusive: 37.9 µM [inhibitor, single point]
FC(F)(F)c1cccc(NC(=S)Nc2ccc(Cl)c(Cl)c2)c1 | inconclusive: 37.9 µM [inhibitor, partial curve, poor fit]
NCCc1ccc(O)c(O)c1 | inactive
COc1cccc(NC(=O)c2cc(-c3ccc(C)o3)nc3ccccc23)c1 | inconclusive: 23.9 µM [inhibitor, partial curve, poor fit]
O=C1CSC(=S)N1c1ccc(Cl)c(Cl)c1 | inactive
O=C(Nc1ccc(Cl)c(Cl)c1)N1CCSC1c1ccco1 (centres undefined) | inactive
O=C(Nc1nnc(-c2ccccc2)s1)c1ccccc1O | inconclusive: 2.69 µM [activator, full curve]
O=C1C(SCCO)=C(SCCO)C(=O)c2ccccc21 | inconclusive: 1.51 µM [inhibitor, partial curve]
Cc1cccnc1NC(=S)Nc1ccc(Cl)c(Cl)c1 | inconclusive: 33.8 µM [inhibitor, partial curve]

Compound | Potency
NCc1ccccc1COc1ccccc1 | inconclusive: 37.9 µM [inhibitor, single point]
Cc1ccc(NC(=O)Nc2ccc(S(N)(=O)=O)cc2)cc1 | inconclusive: 33.8 µM [inhibitor, single point]
O=C(C1CCN(S(=O)(=O)c2cccnc2)CC1)N1CCN(c2cccc(Cl)c2)CC1 | inactive
Oc1ccc(C(=S)N2CCN(Cc3ccccc3)CC2)cc1 | active: 19 µM
COc1cc(/C=C(\C#N)C(=O)NCC2CCCO2)ccc1OC(=O)c1ccco1 (centres undefined) | inconclusive: 16.9 µM [activator, partial curve]
Cc1ccc(NC(=O)C2=C(c3ccccc3)S(=O)(=O)CCS2(=O)=O)cc1 | inconclusive: 9.53 µM [activator, partial curve, poor fit]
O=C(COC(=O)c1ccc(Cl)c(S(=O)(=O)N2CCOCC2)c1)Nc1ccc2[nH]c(=O)[nH]c2c1 | inconclusive: 6.01 µM [inhibitor, partial curve, poor fit]
CC(C)C1O/C(=N/C(=O)Nc2ccc(Cl)c(Cl)c2)NC1=O (centres undefined) | active: 26.9 µM
Clc1ccc(CN2C3=NCCN3c3ccccc32)cc1Cl | active: 6.01 µM
Cc1ccc(NC(=O)Cn2sc3nc(C)cc(C)c3c2=O)c(Cl)c1 | active: 6.01 µM
COc1ccc(C(=O)OCC(=O)NCc2ccco2)cc1OC | inconclusive: 1.69 µM [inhibitor, full curve]
CCOc1ccc(NC(=O)Cn2sc3nc(C)cc(C)c3c2=O)cc1 | active: 8.49 µM
NS(=O)(=O)c1ccc(NC(=S)NCc2cccc(Cl)c2)cc1 | active: 2.39 µM
COc1ccccc1C(=O)NCC(=O)OCC(=O)Nc1ccc2[nH]c(=O)[nH]c2c1 | inconclusive: 15.1 µM [inhibitor, partial curve]
COc1ccc(C(=S)NCS(=O)(=O)c2ccc(C)cc2)cc1 | active: 26.9 µM
CCCCc1ccc(-n2nnnc2SCC(=O)Nc2cc(OC)c([N+](=O)[O-])cc2C)cc1 | inactive
Cc1cc(C(=O)OCC(=O)NCc2ccco2)c(C)n1-c1ccccc1 | inconclusive: 16.9 µM [inhibitor, partial curve]
CCN(CC)c1ccc(NC2=C(Cl)C(=O)c3ccccc3C2=O)cc1 | inactive
Cc1c(N=Cc2ccc(O)c(Br)c2)cccc1[N+](=O)[O-] | inconclusive: 37.9 µM [inhibitor, single point]
O=C1C2CC=C(Cl)CC2C(=O)N1CCCCCCN1C(=O)C2CC=C(Cl)CC2C1=O (centres undefined) | inconclusive: 33.8 µM [inhibitor, single point]
O=C1NC(=S)S/C1=C/c1ccc(N2CCOCC2)o1 | inactive
O=C(NNC(=O)c1cc2cc3ccccc3nc2s1)c1ccc(F)cc1 | inconclusive: 26.9 µM [inhibitor, single point]
NC(=O)c1c(-c2cccs2)csc1N | inconclusive: 3.38 µM [activator, full curve]
Nc1nnc(Cc2cccc(Br)c2)s1 | active: 30.1 µM
O=S1(=O)CCN(Cc2ccc(Cl)c(C(F)(F)F)c2)CC1 | inconclusive: 30.1 µM [inhibitor, partial curve]

Compound | Potency
Cc1noc(NS(=O)(=O)c2ccc(NC(=O)COc3ccc(C#N)cc3)cc2)c1C | active: 21.3 µM
O=C(COc1ccc([N+](=O)[O-])cc1)Nc1ccncc1 | inconclusive: 33.8 µM [inhibitor, single point]
COc1cccc(CNc2ccc(F)c([N+](=O)[O-])c2)c1O | active: 30.1 µM
Cc1cc(NS(=O)(=O)c2ccc(NC(=O)/C=C/c3ccc(C)o3)cc2)nc(C)n1 | inconclusive: 3.38 µM [activator, full curve]
O=C(Cc1ccc(Cl)cc1)Nc1ccc(S(=O)(=O)N2CCOCC2)cc1 | active: 26.9 µM
O=[N+]([O-])c1ccc(C2CC(c3ccccc3)=Nc3ccccc3S2)cc1 (centres undefined) | inactive
O=C(/C=C/c1ccco1)NCc1ccco1 | inconclusive: 33.8 µM [inhibitor, partial curve]
CC(Nc1cccc([N+](=O)[O-])c1)C(=O)Nc1ccc(S(=O)(=O)N2CCCC2)cc1 (centres undefined) | inconclusive: 33.8 µM [inhibitor, single point]
CCN(CC)S(=O)(=O)c1cc([N+](=O)[O-])ccc1NNC(=O)Nc1ccc(Cl)c(Cl)c1 | inactive
Cc1ccnc(NS(=O)(=O)c2ccc(NC(=O)Cc3ccc(Cl)cc3)cc2)n1 | inconclusive: 30.1 µM [inhibitor, partial curve]
O=C1CCC/C(=N/NC(=O)c2cc(NS(=O)(=O)c3cccs3)cc(NS(=O)(=O)c3cccs3)c2)C1 | inconclusive: 26.9 µM [inhibitor, partial curve]
Fc1cccc(NCc2cn3ccccc3n2)c1 | inactive
N#Cc1nc(-c2cccc3ccccc23)oc1NCC#CCOC(=O)c1cccs1 | active: 26.9 µM
O=C(NCCc1ccccc1)c1ccc2nc(-c3ccco3)c(-c3ccco3)nc2c1 | inconclusive: 30.1 µM [inhibitor, partial curve, poor fit]
Clc1nssc1=Nc1nncs1 | active: 9.53 µM
Brc1ccc(CN2C3=NCCCN3c3ccccc32)cc1 | inconclusive: 23.9 µM [inhibitor, partial curve]
O=C(CSc1nnc(Cc2ccc(Cl)cc2)o1)Nc1ccccc1 | inconclusive: 21.3 µM [inhibitor, single point]
C[C@H](NC(=O)C1CCN(S(=O)(=O)c2ccccc2)CC1)C(=O)NCc1ccc(Cl)c(Cl)c1 | inconclusive: 37.9 µM [inhibitor, single point]
O=C1C(=O)N(CCCn2ccnc2)C(c2cccc(Br)c2)/C1=C(\O)c1ccc2c(c1)OCCO2 (centres undefined) | inconclusive: 33.8 µM [inhibitor, single point]
O=C1CC(c2ccc(O)c(O)c2)Oc2c1ccc(O)c2O (centres undefined) | active: 2.13 µM
O=C(N/N=C/c1ccc(O)c(O)c1O)/C(=C/c1ccc([N+](=O)[O-])cc1)NC(=O)c1ccccc1 | active: 10.7 µM
O=C(Nc1ccncc1)Nc1ccc(F)c(Cl)c1 | inconclusive: 30.1 µM [inhibitor, partial curve]
Cc1cc(NS(=O)(=O)c2ccc(NC(=O)COc3ccc(Cl)cc3Cl)cc2)no1 | active: 1.69 µM
O=C1CCc2cc(S(=O)(=O)NCCC(=O)N3CCN(c4cccc(Cl)c4)CC3)ccc2N1 | inconclusive: 30.1 µM [inhibitor, partial curve]
